Source: the supplement of paper PMC11417369
± gives the standard deviation of the averaged measurements. The list shows a part of the results.

What follows are sequences tested on PfAP2-G AP2 domain (GST-tagged) (assay: gcPBM binding intensity (ln(normalized median fluorescence intensity)); higher = stronger DNA binding).
Outline: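 An Agilent 4 × 180k array carrying primer-extended double-stranded 36-bp intergenic genomic probes and negative controls received GST-tagged P. falciparum DNA-binding domains expressed in E. coli, about 25 μg on average, for 1 h. The binding buffer contained 1× PBS, 1% milk, 0.2 mg/ml BSA, 0.5% salmon testes DNA and 0.03% Triton X-100. Binding intensity is the top Masliner-normalised natural-log median intensity across replicate spots of either probe orientation, read after Alexa488 anti-GST antibody staining and a 488 nm scan.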

Row | Sequence | gcPBM binding intensity (ln)
1 | TATAAAATAAATAACAAAAAAAATAAAATAAAAATA [TGCATGCA_negctrl_site297] | 9.705 ± 0.064
2 | AAAAAATACATCAAAAGAAACATATATATATATATA [GTGCAC_negctrl_site719] | 9.93 ± 0.45
3 | TATAGCAAAATATTCACACAAACTATTAATAAAAGT [CACACA_site5795] | 10.06 ± 0.014
4 | AATGGTTATAATATATGTACATATAAATATACTGAA [XGTACX_site8533] | 11.3 ± 0.66
5 | GTTTATATATTATAAAGTACATATGAATTTAATAAT [XGTACX_site3601] | 11.2 ± 0.83
6 | ATAATATAATAATATTGTACATGGTCAAATATGAAA [XGTACX_site8390] | 11 ± 0.46
7 | GATCATTCTAAATATAAACACACATAAATATATACA [CACACA_site9108] | 9.875 ± 0.035
8 | TATATTCCCATATAACGTACATATGAGACACCAACT [XGTACX_site8099] | 11.3 ± 0.64
9 | CTTAAAAAAATATATTGTACATATATATATACAACT [XGTACX_site1281] | 11.1 ± 0.54
10 | TATAATTATGATGATAGTACGTATGAGTTCAAAACA [XGTACX_site4211] | 11.1 ± 0.62
11 | CACATTTTTTAAATATTTTTCTACTCCATAATGTTT [CACACA_negctrl_site557] | 10.3 ± 0.18
12 | TTAATATAGGGAAAAAAAAGAAAATCGAAAATGTGT [CACACA_negctrl_site834] | 10.02 ± 0.099
13 | ATAGTTACACGCCAAAAAAAAAAAAAAAAAAAAAAA [CACACA_negctrl_site1133] | 9.95 ± 0.45
14 | ATAAATAGTATTATATGTACACATAATATTTATAAA [XGTACX_site4751] | 11.5 ± 0.64
15 | TTTCTCTCTTATAAAATACACACGAACAATCATATT [CACACA_site509] | 10.1 ± 0.16
16 | AAAAATGGTGTTAACACACACATATATATATATATA [CACACA_site571] | 10.2 ± 0.46
17 | TTAAAATGATTGTTACTTTTTTTTCCGTTTTCTTAA [CACACA_negctrl_site1195] | 9.97 ± 0.028
18 | TAACTTCAAAAATCTTGTACATAAATATATAAAACA [XGTACX_site8574] | 10.9 ± 0.67
19 | AATTTTGTCCTATGTTGTACTATTTTGCTCTATTTT [XGTACX_site7139] | 11.2 ± 0.59

Row | Sequence | gcPBM binding intensity (ln)
20 | ATTACTAAAACAAAATGTACATATGATTTAAGAAAA [XGTACX_site5992] | 11.1 ± 0.54
21 | TCTTGATCTTATATATATCTACAATATTTTATACAT [TGCATGCA_negctrl_site569] | 9.975 ± 0.021
22 | ATTACAAATATAATATGTACTTAAATATAATTAAAA [XGTACX_site7038] | 11.2 ± 0.75
23 | TTTTTTTTTTAGAGTACACACTTTTTTACATTTATG [CACACA_site5990] | 11.6 ± 0.91
24 | GAAAAATTTAATTATTGTACGTTTCATCTATATTTA [XGTACX_site414] | 11.2 ± 0.86
25 | TTTTTGTTTTTTTTGTGTACTTATCAAATATATATA [XGTACX_site7273] | 11.6 ± 0.83
26 | ATATATATATATATTGCACACATATAAATATATATA [CACACA_site8167] | 9.99 ± 0.51
27 | TAAAACTTAATATAAACACACAAAAATTAATAAATA [CACACA_site4370] | 10 ± 0.13
28 | CAATATTATAGATATACACACATAATGTGTAAAAAC [CACACA_site6631] | 10.2
29 | CAAAAAAAATTATACACACACACACCCATATATATA [CACACA_site1044] | 10.2 ± 0.18
30 | TACTATATATTATATAGTACATAAGATATACAACAT [XGTACX_site2929] | 11 ± 0.61
31 | AAGAAAATTAACCCATGTACTTATGTAGATAGCAAG [XGTACX_site1049] | 11.1 ± 0.6
32 | AATTTTTTTATAGCACGTACAAAAATACAAAATACA [XGTACX_site1569] | 11.4 ± 0.73
33 | AATTTTCAATAGTATACACACAATTCTATAAATATA [CACACA_site6650] | 9.84 ± 0.042
34 | AATGAGAATTTTATTACACACTTTAATATATTTTCA [CACACA_site784] | 9.775 ± 0.078
35 | CACGTGAAAATACAAGCATGCAAGCTTTTTTTTTCT [TGCATGCA_site642] | 9.64 ± 0.31
36 | AATTATATAAGCCACGCATGTGTGCATAAAAATACA [TGCATGCA_site114] | 10.2 ± 0.14
37 | AAAAAAATAAATAAATGTACACATATATATATATAT [XGTACX_site4350] | 11.3 ± 0.71
38 | ATCATTTATATTTTATGTACATATATAATTATATTT [XGTACX_site2129] | 11.3 ± 0.74

Row | Sequence | gcPBM binding intensity (ln)
39 | TAGAGGAATATAATATGTACATAATATAATGTATAT [XGTACX_site2838] | 11.2 ± 0.68
40 | AGTGAAATTTTAGTCACACAGTTTTATCTTTAAGAA [CACACA_site5202] | 9.94 ± 0.15
41 | TTATGTCTAATGAAATGTACATGAATAAATTAAAGT [XGTACX_site8138] | 11.2 ± 0.52
42 | AGCCCAAAAAAGTAGACATGCAAAAACTTTACAACT [TGCATGCA_site550] | 10.01 ± 0.057
43 | TATATATAAACATAATGTACATATAATAAGTAATAT [XGTACX_site497] | 11.1 ± 0.5
44 | AAAAAAAAAAAGAAGGGTACATATTATATATAATAT [XGTACX_site6204] | 11.2 ± 0.76
45 | AAAATGTAATATTGGGTGCACAATAAGTTTGATGTC | 10.4 ± 0.22
46 | TAGTATTAAATATATACACACATATATACCTATAGA [CACACA_site5219] | 9.885 ± 0.049
47 | TACTATATATATATATATATATATATATATATTTAT [GTGCAC_negctrl_site593] | 9.455 ± 0.007
48 | AAAAATTCAATAGGACGTACTAAAACATTCATTAAT [XGTACX_site1712] | 11.2 ± 0.84
49 | TTATAAATAATGAGAAACATTAAATTTAATCATAAA [CACACA_negctrl_site523] | 9.715 ± 0.049
50 | TTTAGTGTTATAAAAAGTACATAATAATTCCTTTTC [XGTACX_site3208] | 11.3 ± 0.91
51 | TCATAGTATAAACACACACACACACCCATATATATA [CACACA_site8512] | 10.2 ± 0.3
52 | AATATGTACAGACATACACACATATTTATATTTATA [CACACA_site6694] | 11.2 ± 0.84
53 | TTATATAAAGAATGTACACACAGAAATGCACAGACA [CACACA_site5288] | 11.3 ± 0.69
54 | GCTTATATTAATAAGGTGCTTTTTATTTCGTGTGTA [GTGCAC_site9649] | 9.82 ± 0.085
55 | ATTCTTAAAAAATAAGTGCAAAATAATTAAATAAAT | 10.02 ± 0.021
56 | ATATGTCCATATAGTAAATGTTACATTTTAAAGCGC [XGTACX_negctrl_site168] | 10.5 ± 0.53
